The other results are listed elsewhere or left out.

This experiment concerns the target T1, MBP-FoxP1dN (Mus musculus, UniProt P58462 326-579).
T1 sequence: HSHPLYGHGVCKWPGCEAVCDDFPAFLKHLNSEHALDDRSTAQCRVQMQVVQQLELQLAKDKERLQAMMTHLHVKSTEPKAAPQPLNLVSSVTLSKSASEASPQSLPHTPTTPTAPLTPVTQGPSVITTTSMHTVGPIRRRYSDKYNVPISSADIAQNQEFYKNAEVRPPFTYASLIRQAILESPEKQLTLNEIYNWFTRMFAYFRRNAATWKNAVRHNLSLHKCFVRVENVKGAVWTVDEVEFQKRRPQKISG
Kind of experiment: PD-seq (MBP pull-down with sequencing); 20 mM Tris-HCl pH 7.5, 100 mM NaCl, 1.5 mM MgCl2, 0.4 uM protein, 0.1 uM dsDNA library, 30 min, room temperature, amylose pull-down; high values mean tight binding. The conditions noted are these: protein: recombinant; tags: His6-MBP; chain copies: 2; dsDNA, one strand shown. The method, boiled down: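 A degenerate double-stranded DNA library, filled in with Klenow, was added at 0.1 µM to 0.4 µM His6-MBP-tagged mouse FoxP3 or FoxP1 fragment lacking the N-terminus, expressed in E. coli. Incubation lasted 30 min at room temperature in Tris pH 7.5 buffer with NaCl and MgCl2, after which complexes were collected on amylose resin, washed three times, digested with proteinase K to free the DNA, barcoded by PCR and sequenced by Illumina. Binding is the pooled-replicate reads-per-million enrichment of pull-down over input.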
Consider “GATGATTGTTCTCCCAGCTGATGAATTTCATAAGTCGAGTAAACAAATTTTCCTAATCTTTCTGTTCAAGCGCCATCTAC”, for which the binding signal is 0.837 RPM ratio (pull-down/input).

Take “GATGATTGTTCTCCCAGCTGATGAATTGCTGCATTCGAGTAAACAAATTTTCCTAATCTTTCTGTTCAAGCGCCATCTAC”: the binding signal is 1.32 RPM ratio (pull-down/input).

For “GATGATTGTTCTCCCAGCTGATGAATTGTAAGAGTCGAGTAAACAAATTTTCCTAATCTTTCTGTTCAAGCGCCATCTAC”, the binding signal is 0.892 RPM ratio (pull-down/input).

For the sequence “GATGATTGTTCTCCCAGCTGATGAATTAACTTTGTCGAGTAAACAAATTTTCCTAATCTTTCTGTTCAAGCGCCATCTAC”, the binding signal was 0.902 RPM ratio (pull-down/input).

As to “GATGATTGTTCTCCCAGCTGATGAATTCTGGCGGTCGAGTAAACAAATTTTCCTAATCTTTCTGTTCAAGCGCCATCTAC”, the binding signal is 0.755 RPM ratio (pull-down/input).

In the case of “GATGATTGTTCTCCCAGCTGATGAATTAGTGGCTTCGAGTAAACAAATTTTCCTAATCTTTCTGTTCAAGCGCCATCTAC”, the binding signal is 0.967 RPM ratio (pull-down/input).

As for “GATGATTGTTCTCCCAGCTGATGAATTTCCCTTTTCGAGTAAACAAATTTTCCTAATCTTTCTGTTCAAGCGCCATCTAC”, the binding signal was 0.942 RPM ratio (pull-down/input).

For the sequence “GATGATTGTTCTCCCAGCTGATGAATTGACCTCATCGAGTAAACAAATTTTCCTAATCTTTCTGTTCAAGCGCCATCTAC”, the binding signal is 0.954 RPM ratio (pull-down/input).

Regarding “GATGATTGTTCTCCCAGCTGATGAATTCATCCACTCGAGTAAACAAATTTTCCTAATCTTTCTGTTCAAGCGCCATCTAC”, the binding signal is 0.832 RPM ratio (pull-down/input).

In the case of “GATGATTGTTCTCCCAGCTGATGAATTGCAAAGTTCGAGTAAACAAATTTTCCTAATCTTTCTGTTCAAGCGCCATCTAC”, the binding signal was 1.3 RPM ratio (pull-down/input).

Take “GATGATTGTTCTCCCAGCTGATGAATTGCCGCCATCGAGTAAACAAATTTTCCTAATCTTTCTGTTCAAGCGCCATCTAC”: the binding signal was 0.999 RPM ratio (pull-down/input).

Regarding “GATGATTGTTCTCCCAGCTGATGAATTCCCCGTATCGAGTAAACAAATTTTCCTAATCTTTCTGTTCAAGCGCCATCTAC”, the binding signal was 0.89 RPM ratio (pull-down/input).

As for “GATGATTGTTCTCCCAGCTGATGAATTTTTTCATTCGAGTAAACAAATTTTCCTAATCTTTCTGTTCAAGCGCCATCTAC”, the binding signal is 1.01 RPM ratio (pull-down/input).

With “GATGATTGTTCTCCCAGCTGATGAATTTTGACGTTCGAGTAAACAAATTTTCCTAATCTTTCTGTTCAAGCGCCATCTAC”, the binding signal is 1.01 RPM ratio (pull-down/input).

For “GATGATTGTTCTCCCAGCTGATGAATTATACGGGTCGAGTAAACAAATTTTCCTAATCTTTCTGTTCAAGCGCCATCTAC”, the binding signal was 0.858 RPM ratio (pull-down/input).

Turning to “GATGATTGTTCTCCCAGCTGATGAATTGCTCCAGTCGAGTAAACAAATTTTCCTAATCTTTCTGTTCAAGCGCCATCTAC”, the binding signal is 0.965 RPM ratio (pull-down/input).

Take “GATGATTGTTCTCCCAGCTGATGAATTACTAAACTCGAGTAAACAAATTTTCCTAATCTTTCTGTTCAAGCGCCATCTAC”: the binding signal was 1.18 RPM ratio (pull-down/input).

On to “GATGATTGTTCTCCCAGCTGATGAATTACTGCTATCGAGTAAACAAATTTTCCTAATCTTTCTGTTCAAGCGCCATCTAC”, for which the binding signal was 1.09 RPM ratio (pull-down/input).

“GATGATTGTTCTCCCAGCTGATGAATTTACTCTATCGAGTAAACAAATTTTCCTAATCTTTCTGTTCAAGCGCCATCTAC”: the binding signal is 1.28 RPM ratio (pull-down/input).

For “GATGATTGTTCTCCCAGCTGATGAATTTCCCTGTTCGAGTAAACAAATTTTCCTAATCTTTCTGTTCAAGCGCCATCTAC”, the binding signal is 0.806 RPM ratio (pull-down/input).

Turning to “GATGATTGTTCTCCCAGCTGATGAATTTACTTTTTCGAGTAAACAAATTTTCCTAATCTTTCTGTTCAAGCGCCATCTAC”, the binding signal was 1.41 RPM ratio (pull-down/input).

As to “GATGATTGTTCTCCCAGCTGATGAATTCGGTGGATCGAGTAAACAAATTTTCCTAATCTTTCTGTTCAAGCGCCATCTAC”, the binding signal was 0.906 RPM ratio (pull-down/input).

Take “GATGATTGTTCTCCCAGCTGATGAATTTAACACTTCGAGTAAACAAATTTTCCTAATCTTTCTGTTCAAGCGCCATCTAC”: the binding signal is 0.926 RPM ratio (pull-down/input).

In the case of “GATGATTGTTCTCCCAGCTGATGAATTGCCTTACTCGAGTAAACAAATTTTCCTAATCTTTCTGTTCAAGCGCCATCTAC”, the binding signal was 1.01 RPM ratio (pull-down/input).

As for “GATGATTGTTCTCCCAGCTGATGAATTAGTTGTGTCGAGTAAACAAATTTTCCTAATCTTTCTGTTCAAGCGCCATCTAC”, the binding signal is 1.22 RPM ratio (pull-down/input).

Turning to “GATGATTGTTCTCCCAGCTGATGAATTTTATTAGTCGAGTAAACAAATTTTCCTAATCTTTCTGTTCAAGCGCCATCTAC”, the binding signal is 1.28 RPM ratio (pull-down/input).

On to “GATGATTGTTCTCCCAGCTGATGAATTGTGTCTATCGAGTAAACAAATTTTCCTAATCTTTCTGTTCAAGCGCCATCTAC”, for which the binding signal was 1.37 RPM ratio (pull-down/input).

On to “GATGATTGTTCTCCCAGCTGATGAATTGATGGATTCGAGTAAACAAATTTTCCTAATCTTTCTGTTCAAGCGCCATCTAC”, for which the binding signal was 0.971 RPM ratio (pull-down/input).

On to “GATGATTGTTCTCCCAGCTGATGAATTTCAAACGTCGAGTAAACAAATTTTCCTAATCTTTCTGTTCAAGCGCCATCTAC”, for which the binding signal was 0.804 RPM ratio (pull-down/input).

Consider “GATGATTGTTCTCCCAGCTGATGAATTGGTGATGTCGAGTAAACAAATTTTCCTAATCTTTCTGTTCAAGCGCCATCTAC”, for which the binding signal was 1.25 RPM ratio (pull-down/input).

Take “GATGATTGTTCTCCCAGCTGATGAATTAGTTAAATCGAGTAAACAAATTTTCCTAATCTTTCTGTTCAAGCGCCATCTAC”: the binding signal was 1.03 RPM ratio (pull-down/input).

Values taken from PMC12820563, “FoxP3 forms a head-to-head dimer in vivo and stabilizes its multimerization on adjacent microsatellites”.
